Over roughly 5,400 compounds, “IFI” has its median near 2; the highest 2% begin near 22. The list shows a part of the results.

This test can be described thus: NOVARTIS: Inhibition Frequency Index (IFI) - the number of HTS assays where a compound showed > 50% inhibition/induction, expressed as a percentage of the number of assays in which the compound was tested. Type of test: functional.
The compound `Cc1cc(S(=O)(=O)NC(Cc2ccc([N+](=O)[O-])cc2)C(=O)O)c(Cl)cc1Cl` (configuration not stated) displayed an IFI of 1.03%. The figure for `Cc1cc(Cl)ccc1OC(C)C(=O)N1CCc2ccccc21` (configuration not stated) is 3.23%; for `CC(C)CCNCC(O)Cn1c2ccccc2c2ccccc21` (configuration not stated) it is 1.41%. Consider `O=C(c1ccc(F)cc1Cl)N1CCN(c2nc(-c3cccs3)ns2)CC1`, for which the IFI stood at 0.935%. As for `CN(C)c1ccc(C=CC=Cc2cccc[n+]2C)cc1`, the IFI turned out to be 17.3%. The figure for `COc1ccc(CN2CCC(Sc3ncccn3)CC2)cc1` is 1.39%; for `COc1ccc2nc(C)cc(Nc3ccc(Oc4ccc(Cl)cc4)c(Cl)c3)c2c1` it is 12.5%. Regarding `Cc1cc(NC2CCCCC2)nc(NCc2ccccc2)n1`, the IFI was 0%.

In the case of `Cc1ccc(C(C(=O)NC(C)(C)C)N(C(=O)c2ccc(-c3ccccc3)[nH]2)c2ccc(C3CCCCC3)cc2)o1` (configuration not stated), the IFI turned out to be 3.16%. The figure for `Cc1ccn2c(NC(C)(C)CC(C)(C)C)c(-c3ccccc3OC(=O)c3cccs3)nc2c1` is 3.74%.

In the case of `O=C(Nc1ccc(-c2nc3ccc(NC(=O)c4ccc(Br)cc4)cc3[nH]2)cc1)c1ccc(Br)cc1`, the IFI is 4.92%.

As to `C[N+](C)(CC#Cc1ccccc1)CC#Cc1ccccc1`, the IFI was determined as 3.64%.

As to `CCOC(=O)C1=C(C)N=c2sc(=Cc3ccc(I)o3)c(=O)n2C1c1ccccc1Cl` (configuration not stated), the IFI came to 4.82%. The figure for `CCCCNC(=O)NC(Cc1c[nH]c2ccccc12)C(=O)NC1CCCCC1` (configuration not stated) is 4.21%; for `Oc1cccc(Nc2nc(NCc3ccco3)c3ccccc3n2)c1` it is 0%.

In turn, `O=C(Nc1cc(Cl)cc(Cl)c1)C1C2C=CC3(O2)C1C(=O)N(CCC1=CCCCC1)C3C(=O)NC1CCCCC1` (configuration not stated) came in with an IFI of 2.13%.

As to `CCCCCNC(=O)C1CSC(c2ccoc2)N1C(=O)c1ccccc1Cl` (configuration not stated), the IFI was determined as 0.943%. Turning to `COC(=O)COc1ccc(/C=C2\SC(=Nc3ccc(F)cc3)NC2=O)cc1`, the IFI worked out at 0%. The figure for `CCCCOc1ccc(C(=O)Nc2cc(C)on2)cc1` is 0%; for `CCCCC(=O)N(C)CCCNc1ccnc2cc(Cl)ccc12` it is 1.87%; for `O=S1(=O)CCC(O)c2ccsc21` (configuration not stated) it is 0%.

In turn, `CN(C)CCCN(Cc1cc2cc3c(cc2[nH]c1=O)OCO3)C(=S)Nc1cccc(Cl)c1` yielded an IFI of 4.96%. As to `COc1cccc(-c2ccc(O)c(CNC(C)c3cccc4ccccc34)c2)n1` (configuration not stated), the IFI was found to be 2.56%. The figure for `COc1nc(C)nc(NC(=O)NC(=O)c2c(OC)ccc([N+](=O)[O-])c2OC)n1` is 2.61%; for `Cc1ccc(NC(=O)C(C)Sc2nnc(-c3ccc(O)cc3)o2)cc1` (configuration not stated) it is 6.14%. The figure for `O=C(O)c1cccc(N2N=C(c3ccccc3)CC2=O)c1` is 4.82%; for `COc1ccc(C2CC(=O)C3=C(C2)NC(C)=C(C(=O)OC2CCCC2)C3c2cccc(Cl)c2)cc1OC` (configuration not stated) it is 8.23%. Turning to `C=CCc1c(C)nc2ccc(Br)cc2c1O`, the IFI came to 0%.

The compound `COc1ccc(C2CC(=O)C3=C(C2)NC(=O)CC3c2ccc([N+](=O)[O-])cc2)cc1OC` (configuration not stated) came in with an IFI of 0%.

The compound `CO[C@H]1C[C@H](C)Cc2cc(O)cc(c2)NC(=O)C(C)=CCC[C@H](OC)[C@@H](OC(N)=O)C(C)=CC(C)[C@H]1O` (some centres not stated) showed an IFI of 9.62%. `COc1ccc(CNCc2cc(-c3ccnc4cc(Cl)ccc34)ccc2O)c(OC)c1` came in with an IFI of 3.48%.

Turning to `Cc1cc(N2CCC(C)CC2)nc(-n2nc(C)cc2C)n1`, the IFI amounted to 1.61%. `O=C(CSc1nc2ccccc2c(=O)n1CCCN1CCOCC1)Nc1cccc(S(=O)(=O)N2CCCCCC2)c1` showed an IFI of 3.03%.

Regarding `CCCN1CCC(N2C[C@@H](NCc3ccc(OCc4ccccc4)cc3)C[C@H]2C(=O)NCCc2ccc3c(c2)OCO3)CC1`, the IFI was 9.71%. The figure for `CCn1c(=NC(=O)c2cc(=O)c3ccccc3o2)sc2c(OC)ccc(OC)c21` is 1.89%. As for `CCOc1cc(-c2nc3c(=O)n(C)c(=O)nc-3n(C)n2)ccc1OC(C)C`, the IFI was 30.8%.

In the case of `CCN(CC)C(=O)COc1ccccc1CNCc1ccccc1`, the IFI worked out at 0%. In the case of `CCCCOC(=O)Cc1ccc(N)cc1`, the IFI was determined as 7.09%. The figure for `CCC(c1nc2ccccc2c(=O)n1-c1cccc(C)c1)N(Cc1ccccc1)C(=O)Nc1c(C(C)C)cccc1C(C)C` (configuration not stated) is 5.38%; for `COc1cc(C2C(C#N)=C(N)Oc3cc4c(cc32)OCO4)cc(Br)c1OC` (configuration not stated) it is 7.69%; for `O=C(Nc1ccc(-c2nc3ccccc3[nH]2)cc1)c1cccc(C(=O)Nc2ccc(-c3nc4ccccc4[nH]3)cc2)n1` it is 11.1%. The figure for `COc1ccc(NC(=O)c2cc3cc(C4(O)CCN(CC(C)(C)C)CC4)ccc3o2)cc1OC` is 1.94%; for `CCCC(=O)N(C/C=C/c1ccccc1OC)CCN1CCN(C(=O)Nc2cccc(C)c2)CC1` it is 2.8%. The figure for `CCSc1ncnc2scc(-c3ccccc3)c12` is 1.19%; for `CCOC(=O)C1=C(c2ccccc2)N=c2sc(=Cc3ccccc3O)c(=O)n2C1c1c(OC)ccc2ccccc12` (configuration not stated) it is 0%. `CCN(CC)S(=O)(=O)c1ccc2[nH]cc(C(=O)NCCCN3CCN(c4ccc(OC)cc4)CC3)c(=O)c2c1` registered an IFI of 6%.

As for `Cc1nc(NN=Cc2ccccc2O)cc(N2CCCCC2)n1`, the IFI turned out to be 0%.

Turning to `COc1cc(OC)c(NC(=O)C2c3ccccc3C(=O)N(C)C2c2cccs2)cc1Cl` (configuration not stated), the IFI is 2.7%. The figure for `Cc1ccc2nc(-c3ccc(NC(=O)c4ccc(S(=O)(=O)N5CC(C)CC(C)C5)cc4)cc3)sc2c1` (configuration not stated) is 2.3%; for `CCOC(=O)CCC(=O)Oc1ccccc1-c1nc2cc(C)ccn2c1NC(C)(C)CC(C)(C)C` it is 4.67%.

As to `O=C(NN=Cc1ccc(Br)cc1)c1ccco1`, the IFI amounted to 0%. The compound `Cc1nn(-c2cc(N3CCOCC3)ccc2[N+](=O)[O-])c(=O)c2ccccc12` yielded an IFI of 1.18%. In turn, `CCN1CCN(c2cc(C)c3cc(NC(=O)c4cc(=O)c5ccccc5o4)ccc3n2)CC1` yielded an IFI of 9.2%. `COC(=O)C1=C(C)N/C(=C\c2cc(C)n(-c3cc(Cl)ccc3Cl)c2C)C1=O`: the IFI amounted to 0%. Compound `CC(C)CNc1nc(NCCCn2ccnc2)ncc1C(=O)NCc1ccccc1` came in with an IFI of 1.94%. The figure for `CN(CCCNc1ccnc2cc(Cl)ccc12)C(=O)c1cccc(C(F)(F)F)c1` is 3.74%; for `c1ccc(OCCOc2ccc(Nc3c4ccccc4nc4ccccc34)cc2)cc1` it is 0%. The figure for `COc1cc(NC(C)CCCN(Cc2ccc(Cl)cc2)C(=O)Nc2ccccc2F)c2ncccc2c1` (configuration not stated) is 3.67%; for `CCOC(=O)c1cnc2ccccc2c1Nc1ccc(C(C)=O)cc1` it is 6.15%. The figure for `CCN1CCN(c2c(C(=O)c3ccccc3)cnc3cc(OC)c(OC)cc23)CC1` is 2.22%. The compound `CCCn1c(=O)c(C(=O)NCC[N+](CC)(CC)CC)c(O)c2ccccc21` returned an IFI of 0%. The figure for `O=C(Cc1ccc(Cl)cc1)NNS(=O)(=O)c1ccc([N+](=O)[O-])cc1` is 0%.

The record behind these values is ChEMBL document CHEMBL1156829.
